Source: the supplement of paper PMC12297408
Where a name gives a salt, the structure may show the parent alone. About 40 (3%) of roughly 1,300 compounds showed activity. The list shows a part of the results.

System: Plasmodium falciparum NF54/iGP1_RE9H ulg8 stage V gametocytes
Assay: gametocyte viability (luciferase signal relative to DMSO control) (% of DMSO control); higher = less gametocytocidal activity, active = 50 or less
Details: exposure time: 72 h
Summary of the method: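 In 96-well plates holding nanolitre spots of compound (10 mM DMSO stocks), NF54/iGP1_RE9Hulg8 stage V gametocytes from day 12 were added at ~2.5% gametocytemia and 3% hematocrit in medium with 0.5% Albumax II, giving single wells at 10 µM or 1 µM. Incubation lasted 72 h at 37 °C. Each 90 µl sample then received 10 µl D-luciferin (30 mg/ml) before luminescence reading on an IVIS Lumina II, and viability was normalized to the mean of DMSO vehicle wells on the same plate.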

Row | SMILES | gametocyte viability (concentration: 1 µM) | gametocyte viability (concentration: 10 µM)
1 | CO[C@H]1/C=C/O[C@@]2(C)Oc3c(C)c(O)c4c(O)c(c5c(nc6cc(C)ccn65)c4c3C2=O)NC(=O)/C(C)=C\C=C\[C@H](C)[C@H](O)[C@@H](C)[C@@H](O)[C@@H](C)[C@H](OC(C)=O)[C@@H]1C [Rifaximin] | inactive: 91.3 | inactive: 89
2 | Cc1cc(O)c(C(=O)N[C@@H](C(=O)N[C@@H]2C(=O)N3C(C(=O)O)=C(CSc4nnnn4C)CS[C@H]23)c2ccc(O)cc2)cn1 [Cefpiramide] | inactive: 78.6 | inactive: 80.2
3 | CC(=O)O[C@]1(C(C)=O)CC[C@H]2[C@@H]3C=C(Cl)C4=CC(=O)CC[C@]4(C)[C@H]3CC[C@@]21C [Chlormadinone acetate] | inactive: 87.4 | inactive: 88.4
4 | CCN(CC)C(C)CN1c2ccccc2Sc2ccccc21 (centres undefined) [Ethopropazine hydrochloride] | inactive: 87.8 | inactive: 90.3
5 | CCCNC(=O)NS(=O)(=O)c1ccc(Cl)cc1 [Chlorpropamide] | inactive: 75.7 | inactive: 83.9
6 | CN(C)C(=N)NC(=N)N [Metformin hydrochloride] | inactive: 78.6 | inactive: 84.3
7 | NCCCCCC(=O)O [Aminocaproic acid] | inactive: 91 | inactive: 96.7
8 | CNCCc1ccccn1 [Betahistine mesylate] | inactive: 83.9 | inactive: 94.8
9 | CC=CC(=O)N(CC)c1ccccc1C [Crotamiton] | inactive: 94.6 | inactive: 87
10 | Nc1nc2c(ncn2COC(CO)CO)c(=O)[nH]1 [Ganciclovir] | inactive: 86.3 | inactive: 86.6
11 | O=C(c1ccc(F)cc1)C1CCN(CCn2c(=O)[nH]c3ccccc3c2=O)CC1 [Ketanserin tartrate hydrate] | inactive: 94.5 | inactive: 69
12 | CCN(CC)C(=O)c1ccc(O)c(OC)c1 [Ethamivan] | inactive: 85.4 | inactive: 85.4
13 | CN(CCCN1c2ccccc2CCc2ccccc21)CC(=O)c1ccc(Cl)cc1 [Lofepramine] | inactive: 81.1 | inactive: 81.5
14 | CN(C)CCOC(c1ccccc1)c1ccccc1.Cn1c(=O)c2[nH]c(Cl)nc2n(C)c1=O [Dimenhydrinate] | inactive: 89 | inactive: 94
15 | O=C1NCC2(CCN(CCc3ccccc3)CC2)O1 [Fenspiride hydrochloride] | inactive: 90.1 | inactive: 90.5
16 | Clc1ccc2c(c1)CCc1cccnc1C2=C1CCNCC1 [Desloratadine] | inactive: 87.5 | inactive: 81.2
17 | Cc1[nH]cnc1CN1CCc2c(c3ccccc3n2C)C1=O [Alosetron hydrochloride] | inactive: 91.8 | inactive: 95.6
18 | CCCOc1ccc2[nH]c(NC(=O)OC)nc2c1 [Oxibendazol] | inactive: 84.4 | inactive: 88.1
19 | Nc1ncnc2c1ncn2[C@@H]1O[C@H](CO)[C@@H](O)[C@@H]1O [Vidarabine] | inactive: 93.3 | inactive: 92.1

Row | SMILES | gametocyte viability (concentration: 1 µM) | gametocyte viability (concentration: 10 µM)
20 | C[C@@](Cc1ccc(O)c(O)c1)(NN)C(=O)O [Carbidopa] | inactive: 84.1 | inactive: 81.6
21 | CCOc1nc2cccc(C(=O)O)c2n1Cc1ccc(-c2ccccc2-c2nnn[nH]2)cc1 [Candesartan] | inactive: 90 | inactive: 88
22 | O=C1CC[C@@H](C(=O)N2CSC[C@H]2C(=O)O)N1 [Pidotimod] | inactive: 83.8 | inactive: 81.2
23 | c1ccc(-c2ccc(C(c3ccccc3)n3ccnc3)cc2)cc1 (centres undefined) [Bifonazole] | inactive: 82.5 | inactive: 82.7
24 | Oc1c(Cl)cc(Cl)c2cccnc12 [Chloroxine] | inactive: 83.4 | inactive: 84.2
25 | CN(C)CCC(c1ccc(Br)cc1)c1ccccn1 (centres undefined) [Brompheniramine maleate] | inactive: 87 | inactive: 85.1
26 | CC(=O)OC[C@H]1O[C@@H]([S-])[C@H](OC(C)=O)[C@@H](OC(C)=O)[C@@H]1OC(C)=O.CCP(CC)CC.[Au+] [Auranofin] | inactive: 82.6 | active: 3.03
27 | CCC1(c2ccccc2)C(=O)NCNC1=O [Primidone] | inactive: 88.9 | inactive: 86.1
28 | C[C@H]1O[C@H](O[C@H]2[C@H](O)[C@@H](O)[C@@H](O[C@@H]([C@H](O)[C@@H](O)C=O)[C@H](O)CO)O[C@@H]2CO)[C@H](O)[C@@H](O)[C@@H]1N[C@H]1C=C(CO)[C@@H](O)[C@H](O)[C@H]1O [Acarbose] | inactive: 80.6 | inactive: 83.5
29 | Cn1c(=O)c2c(ncn2CC2OCCO2)n(C)c1=O [Doxofylline] | inactive: 86.6 | inactive: 86.7
30 | CN1CCN(CC(=O)N2c3ccccc3C(=O)Nc3cccnc32)CC1 [Pirenzepine dihydrochloride] | inactive: 86.5 | inactive: 83.3
31 | COC(=O)Nc1nc2cc(Sc3ccccc3)ccc2[nH]1 [Fenbendazole] | inactive: 84.5 | inactive: 80.4
32 | CN(CCCCCCCCCCN(C)C(=O)Oc1cccc([N+](C)(C)C)c1)C(=O)Oc1cccc([N+](C)(C)C)c1 [Demecarium bromide] | inactive: 88.4 | inactive: 88.2
33 | CC(=O)N(CC(O)CO)c1c(I)c(C(=O)NCC(O)CO)c(I)c(C(=O)NCC(O)CO)c1I (centres undefined) [Iohexol] | inactive: 87 | inactive: 84.1
34 | CCN(CC)CCNC(=O)c1ccc(N)cc1 [Procainamide hydrochloride] | inactive: 84.3 | inactive: 79.4
35 | CC(=O)Nc1c(I)c(C(=O)N[C@H]2C(O)O[C@H](CO)[C@@H](O)[C@@H]2O)c(I)c(N(C)C(C)=O)c1I (some centres undefined) [Metrizamide] | inactive: 84.7 | inactive: 88.9
36 | CCOC1O[C@H]([C@@H](COCc2ccccc2)OCc2ccccc2)[C@H](OCc2ccccc2)[C@H]1O (some centres undefined) [Tribenoside] | inactive: 81.8 | inactive: 56.9
37 | CNCC(O)c1ccc(O)c(O)c1 (centres undefined) [Racepinephrine HCl] | inactive: 81.4 | inactive: 86
